Inconclusive results, whose numbers are uncertain, are shown with a selection of clear calls. For some of these results: Where the call is inconclusive, the potency comes from a doubtful curve fit. Calls of active or inactive are those of the source. Calls follow the shape of the dose curve; as a rule, active = well fitted curve in the direction sought with a large enough effect; inconclusive = small, poorly fitted or top-dose-only effect, or another doubt; inactive = no such curve, though single readings can be large; an effect the other way counts as inactive or inconclusive.
Columns and labels:
[1] = OV-KATE Cancer Cell Toxicity qHTS against the NCATS CANVASS Library (AID 1347345); also: potency is read from the fitted curve at half-maximal effect
Summary of the method: (§1)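 Per well, 1000 cells; exposure 72 h with compound at 11 final concentrations; readout CellTiter-Glo luminescence.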

[2] = HPAF-II Cancer Cell Toxicity qHTS against the NCATS CANVASS Library (AID 1347346); also: potency is read from the fitted curve at half-maximal effect; nearly all actives have a fitted effect of over 55% in size
Summary of the method: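 First, HPAF-II cells are plated (1000 cells/well) and held 4 h at 37 degrees C. Next, compounds are pin-transferred as an 11-point series. After 72 h, CellTiter-Glo is added and luminescence measured.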

[3] = SW1088 Cancer Cell Toxicity qHTS against the NCATS CANVASS Library (AID 1347350); also: potency is read from the fitted curve at half-maximal effect; nearly all actives have a fitted effect of over 75% in size
Summary of the method: as §1

[4] = COV-362 Cancer Cell Toxicity qHTS against the NCATS CANVASS Library (AID 1347352); also: potency is read from the fitted curve at half-maximal effect
Summary of the method: (§2)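 First, 1000 cells go into each well and rest for 4 hours. Next, an 11-point dilution range is pinned in. Plates then incubate 72 hours before CellTiter-Glo addition and luminescence reading.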

[5] = A2780 Cisplatin Sensitive Ovarian Cancer Cell Toxicity qHTS against the NCATS CANVASS Library (AID 1347353); also: potency is read from the fitted curve at half-maximal effect; nearly all actives have a fitted effect of over 60% in size
Summary of the method: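 Cells are plated at 750 per well and rest for 4 hours. Compounds are added across eleven concentrations, and incubated 72 hours before ATP is quantified by luminescence.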

[6] = UWB1.289-WTBRCA1 Cancer Cell Toxicity qHTS against the NCATS CANVASS Library (AID 1347354); also: potency is read from the fitted curve at half-maximal effect
Summary of the method: as §2

[7] = HEK-293 Cancer Cell Toxicity qHTS against the NCATS CANVASS Library (AID 1347355); also: potency is read from the fitted curve at half-maximal effect; nearly all actives have a fitted effect of over 65% in size
Summary of the method: as §2

[8] = KB-8-5-11 Cancer Cell Toxicity qHTS against the NCATS CANVASS Library (AID 1347364); conditions: activity change, negative = toxicity: at 46.1 µM (top of the series); also: potency is read from the fitted curve at half-maximal effect; nearly all actives have a fitted effect of over 75% in size
Summary of the method: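 Terse: KB-8-5-11, 500 cells/well, 72 hr, 37C/5% CO2, 11-pt titration, CellTiter-Glo readout; confirmatory runs ± 1uM tariquidar in medium.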

[9] = KB-3-1 Cancer Cell Toxicity qHTS against the NCATS CANVASS Library (AID 1347366); also: potency is read from the fitted curve at half-maximal effect; nearly all actives have a fitted effect of over 75% in size
Summary of the method: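 KB-3-1 cells (500/well) in DMEM with 10% FBS were exposed to compounds for 72 h at 37C. Viability was read by CellTiter-Glo luminescence.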

[10] = G06 Cancer Cell Toxicity qHTS against the NCATS CANVASS Library (AID 1347368); also: potency is read from the fitted curve at half-maximal effect; nearly all actives have a fitted effect of over 60% in size
Summary of the method: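 Cells were plated at 500 per well, then compounds were added over an 11-point range. After 72 hr at 37C, CellTiterGlo was added and luminescence measured as ATP content.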

[11] = MCF7 Cancer Cell Toxicity qHTS against the NCATS CANVASS Library (AID 1347369); conditions: activity change, negative = cytotoxicity: at 46 µM (top of the series); also: potency is read from the fitted curve at half-maximal effect
Summary of the method: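 MCF7 cells (500/well) were exposed 72 h at 37 °C to compounds in an 11-point series. Viability was read as ATP content by CellTiterGlo luminescence.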

[12] = J3T Cancer Cell Toxicity qHTS against the NCATS CANVASS Library (AID 1347371); also: potency is read from the fitted curve at half-maximal effect
Summary of the method: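 Luminescence from CellTiterGlo, reporting cellular ATP, serves as the viability measure after 72 hr compound treatment of J3T canine glioma cells seeded at 500 cells/well.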

[13] = target: Nuclear receptor subfamily 1 group I member 3 (Homo sapiens) (UniProt Q14994); assay: qHTS for Constitutive Androstane Receptor (CAR) Antagonist screened against the NCATS CANVASS Library (AID 1347372); also: potency is read from the fitted curve at half-maximal effect
Summary of the method: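 Cells were seeded and left 4hr to attach, then received compound at 11 concentrations and 50 nM CITCO. Following 24hr incubation, fluorescence viability and luciferase luminescence were read sequentially.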

[14] = qHTS for Hypoxia signaling pathway (HIF-1) antagonists against the NCATS CANVASS Library (AID 1347374); also: potency is read from the fitted curve at half-maximal effect; nearly all actives have a fitted effect of over 60% in size
Summary of the method: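 Antagonism scored as loss of CoCl2-driven (60 uM stock added) HRE beta-lactamase signal, read by CCF4 FRET at 460/530 nm. Compounds were tested in an 11-point series on ME-180 reporter cells for 17 hrs at 37C, with parallel CellTiter-Glo cytotoxicity.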

[15] = Secretion counterscreen for inhibitors of the SERCaMP assay screened against the NCATS CANVASS Library (AID 1347390); conditions: SH-SY5Y constitutive GLuc secretion, luminescence, 20 h; activity change, negative = inhibition: at 76.6 µM (top of the series)
Summary of the method: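 SH-SY5Y cells with constitutively secreted GLuc reporter, 1000 cells/well, treated 20 h at 37C with compounds at 0.001 - 77 uM final; secreted luciferase read as luminescence after coelenterazine; Brefeldin A as positive control.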

[16] = qHTS for activators of Nrf2/ARE signaling pathway screened against the NCATS CANVASS Library (AID 1347391); also: potency is read from the fitted curve at half-maximal effect; nearly all actives have a fitted effect of over 60% in size
Summary of the method: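 Beta-lactamase reporter signal, read as 460 and 530 nm emission under 405 nm excitation after 2 h CCF4 loading, reflected ARE activation in HepG2 cells treated 16 h with an 11-point series.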

[17] = qHTS for inhibitors of ER calcium dysfunction: SERCaMP assay screened against the NCATS CANVASS Library (AID 1347393); conditions: SH-SY5Y GLuc-SERCaMP (Gaussia luciferase released on ER calcium loss) secretion, thapsigargin, luminescence; activity change, negative = inhibition: at 76.6 µM (top of the series) unless noted; also: potency is read from the fitted curve at half-maximal effect; nearly all actives have a fitted effect of over 40% in size
Summary of the method: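 qHTS in SH-SY5Y reporter cells: 16 h compound pretreatment, 4 h thapsigargin, then secreted Gaussia luciferase measured by luminescence.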

[18] = Vero-766 cells viability qHTS against the NCATS CANVASS Library: Counterscreen for Zika virus inhibition assay (AID 1347394); conditions: Vero 766 viability, CellTiter-Glo luminescence, 72 h; activity change, negative = cytotoxic: at 46.1 µM (top of the series)
Summary of the method: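 Vero 766 cells (1000/well), without Zika virus, were exposed to compounds for 72 h at 37C. Viability was measured by CellTiter Glo luminescence. Media-only wells served as 100% inhibition.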

[19] = qHTS for inhibitors of Wild type Zika virus screened against the NCATS CANVASS Library (AID 1347396); also: potency is read from the fitted curve at half-maximal effect
Summary of the method: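 Protection against wild-type Zika cytopathic effect is measured in African green monkey Vero 766 cells exposed to an 11-point compound series. Surviving cells are quantified by CellTiter Glo luminescence after 72 h.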

[20] = Viability qHTS for inhibitors of the SERCaMP assay screened against the NCATS CANVASS Library (AID 1347400); also: potency is read from the fitted curve at half-maximal effect; nearly all actives have a fitted effect of over 70% in size
Summary of the method: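 Seed SH-SY5Y-GLuc SERCaMP MJH297 cells at 1000 per well, incubate 4 h, add compounds across an 11-point range, incubate 48 h at 37C, then add CellTiter-Glo and read luminescence.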

[21] = UWB1.289 Cancer Cell Toxicity qHTS against the NCATS CANVASS Library (AID 1347347)
Summary of the method: as §1

[22] = Panc-1005 Cancer Cell Toxicity qHTS against the NCATS CANVASS Library (AID 1347349)
Summary of the method: as §1

[23] = qHTS for Hypoxia signaling pathway (HIF-1) agonists against the NCATS CANVASS Library (AID 1347375); also: potency is read from the fitted curve at half-maximal effect
Summary of the method: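 Cells plated and rested 5 h, compounds pinned in DMSO across 11 concentrations, incubated 17 h at 37C, loaded with CCF4-AM for 2 h, fluorescence read at 460 and 530 nm, then CellTiter-Glo luminescence measured for viability and normalization.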

[24] = DH5-alpha competent E. coli microbial cell viability qHTS against the NCATS CANVASS Library (AID 1347377); conditions: viability signal change, negative = cytotoxic: at 46.1 µM (top of the series); also: potency is read from the fitted curve at half-maximal effect
Summary of the method: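 Bacteria were dispensed at 0.2 OD, then compounds were pin-transferred. Plates were incubated overnight at 37C, after which BacTiter-Glo was added and luminescence measured 20 min later.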

[25] = qHTS for H2AX Agonists against the NCATS CANVASS Library (AID 1347378); also: potency is read from the fitted curve at half-maximal effect
Summary of the method: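 CHO-K1 cells (1000/well, overnight at 37C) exposed to compounds at several concentrations for 3 hr at 37C, 0.76% DMSO final. Lysates read by TR-FRET (phospho-H2AX S139 Eu-cryptate antibody / H2AX-d2 antibody) after 24 hr at room temperature; 665/615 nm ratio.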

[26] = qHTS assay for small molecule disruptors of mitochondrial membrane potential screened against the NCATS CANVASS Library (AID 1347389); also: nearly all actives have a fitted effect of over 60% in size
Summary of the method: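 Mitochondrial depolarization in HepG2 cells is scored as a falling aggregate-to-monomer fluorescence ratio after 1 hr compound exposure and 30 min staining with Mito-MPS dye at 37C, each compound tested as an 11-point titration.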

Measured: Potency
Tags tell the direction and shape of the fitted curve.

UniProt Q14994, sequence (Q14994 whole entry, looked up): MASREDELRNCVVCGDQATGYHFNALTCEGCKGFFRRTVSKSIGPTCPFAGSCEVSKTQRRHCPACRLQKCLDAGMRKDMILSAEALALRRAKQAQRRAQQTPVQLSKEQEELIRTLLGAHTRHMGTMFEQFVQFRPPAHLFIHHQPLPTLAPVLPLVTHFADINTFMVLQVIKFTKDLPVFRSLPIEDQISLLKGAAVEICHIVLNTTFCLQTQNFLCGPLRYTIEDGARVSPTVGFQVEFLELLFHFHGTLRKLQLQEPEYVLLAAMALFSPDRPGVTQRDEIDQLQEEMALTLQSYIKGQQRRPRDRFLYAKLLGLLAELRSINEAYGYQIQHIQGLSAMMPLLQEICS

CN1CC[C@]2(c3cccc4c3N[C@H]3N(C)CC[C@@]43[C@]34CCN(C)[C@H]3Nc3ccccc34)c3ccccc3N[C@H]12
inconclusive: [2] 18.8 µM [cytotoxic, single point] | [3] 29.8 µM [cytotoxic, single point] | [5] 11.8 µM [cytotoxic, single point] | [6] 29.8 µM [cytotoxic, single point] | [9] 29.6 µM [cytotoxic, single point] | [13] 37.1 µM [inhibitor, single point] | [14] 9.41 µM [inhibitor, partial curve] | [16] 37.1 µM [activator, single point] | [17] 2.16 µM [inhibitor, partial curve, poor fit] | [19] 36.9 µM [inhibitor, single point]
active: [1] 18.8 µM | [4] 14.9 µM | [7] 7.43 µM | [8] 18.7 µM | [10] 7.43 µM | [11] 11.7 µM | [12] 9.35 µM | [15] 19.3 µM | [18] 20.9 µM | [20] 15.2 µM

CCCCCCCCC[C@@H]1C[C@@H]2CC[C@H]3[C@@H](C(=O)OCCCCN=C(N)N)[C@@H](C)N=C(N1)N23
inactive: [26]
active: [1] 13 µM | [21] 10.3 µM | [22] 14.7 µM | [4] 13 µM
inconclusive: [5] 20.5 µM [cytotoxic, single point] | [6] 14.6 µM [cytotoxic, partial curve] | [8] 12.9 µM [cytotoxic, partial curve, poor fit] | [11] 20.4 µM [cytotoxic, partial curve, poor fit] | [13] 10.2 µM [inhibitor, partial curve] | [14] 16.4 µM [inhibitor, single point] | [23] 18.4 µM [activator, single point] | [24] 14.5 µM [rising, single point] | [25] 23.8 µM [activator, single point]

Reference: PubChem BioAssay (NCATS)
